# Laboratory results as given in ChEMBL document CHEMBL4888484, “Replenishing the malaria drug discovery pipeline: Screening and hit evaluation of the MMV Hit Generation Library 1 (HGL1) against asexual blood stage Plasmodium falciparum ,using a nano luciferase reporter read-out” (2022).
# In all, about 150,000 compounds went through this assay and about 540 (0.36%) showed an effect of 50% or more. The list shows a part of the results.
# Tested on: Plasmodium falciparum
# Test: Primary screen in NF54 nanoGlo assay, in single point, at 2uM, 72h; a lower Z score goes with more inhibition
# Format: functional, Erythrocyte
# Settings: timepoint 72 hour
SMILES,% Inhibition,Z score
CC(=O)N1CCN(C(=O)c2cnn3c(-c4ccc(C)c(C)c4)ccnc23)CC1,-8%,1.09
Cc1cc(CN(C)Cc2cnccn2)c(C)c(CN2CCC[C@H](C)C2)c1,-7%,1.33
Cc1ccc(-c2noc(Cn3ncn4nc(-c5cc(C)ccc5C)cc4c3=O)n2)cc1,-5%,0.56
Cc1cc(C(=O)N2CCC(c3nc(-c4cccn4C)no3)CC2)nn1C,-17%,2.29
COCc1nc([C@@H]2COCCN2C(=O)c2cc(C)n(C(C)C)c2C)no1,-8%,0.83
Cc1ccc(-c2cc(C(=O)NCCc3csc4c3CCCC4)[nH]n2)s1,-14%,1.82
c1ccc([C@@H]2C[C@H](c3cccs3)n3ncnc3N2)cc1,-8%,0.89
OCC1CCN(CCNc2ncccc2Cl)CC1,-5%,0.92
Cc1nn(CCO)cc1CN1C[C@@H]2CC[C@H]1CN(c1cnccn1)C2,-13%,1.84
CC(C)NC(=O)N1CCC[C@H]1C(=O)N(C)Cc1cccc(N(C)C)c1,12%,-1.62
Brc1ccc(C2(c3ccno3)CCOCC2)cc1,-2%,0.21
COCCN(Cc1ccc(OC)c(OS(=O)(=O)c2ccc(F)cc2)c1)C(=O)c1ccc2c(c1)OCO2,-2%,0.22
Cc1ccc2nc(O)c3nnc(C)n3c2c1,34%,-1.5
CCN(CCO)C(=O)c1ccc(C#N)c(Cl)c1,9%,-1.33
CC(C)C1C(C(=O)NCc2cccc(-n3cncn3)c2)CCN1C(=O)OC(C)(C)C (stereo not drawn),-8%,1.16
COC(=O)N1CCC[C@H](NC(=O)NCc2nc(C3CC3)no2)C1,-16%,1.97
C[C@H]1CN(S(=O)(=O)Cc2ccccc2)CCN1c1cnccn1,8%,-1.07
CC1(C)Cc2ccsc2CN1C(=O)c1cn2c(n1)CCC2,-8%,1.06
Cc1ccccc1C(=O)NC(=O)Nc1ccc(-n2nc(-c3ccccc3)cc2C(F)(F)F)cc1,3%,-0.41
O=S(=O)(NCc1cccn1Cc1ccc(Cl)cc1)c1ccc2ccccc2c1,-16%,1.56
CC(C)c1csc(CN(CCO)Cc2nccn2C)n1,-23%,2.94
CCCCS(=O)(=O)N1CC[C@H](CNc2nc(OC)ncc2Cl)C1,-2%,0.38
Cn1cnc(C(=O)N2CCC[C@H](N(CCN3CCCC3)C(=O)C3CCC3)C2)c1,4%,-0.53
COC(=O)C1CCc2nnc(C3Cc4ccccc4O3)n2CC1 (stereo not drawn),2%,-0.32
COC(=O)c1cc(C2CC2)nc2c1c(=O)n(Cc1ccc(C)cc1)c(=O)n2-c1ccccc1,3%,-0.36
CC1CCCCC1CN1CC(O)(CC#N)C1 (stereo not drawn),0%,0.02
CN1CCCN(C(=O)COCc2cc[nH]c(=O)c2)c2ccc(F)cc21,-8%,1.56

SMILES,% Inhibition,Z score
Cn1c(=O)c2c(nc(-n3nc(-c4ccco4)cc3O)n2CCc2ccccc2)n(C)c1=O,-5%,0.92
CNC(=O)[C@H](CO)Nc1nccc(C(F)(F)F)n1,-2%,0.31
O=C(OCn1cncn1)c1ccccc1O,-12%,1.55
Cc1nn(CCCNC(=O)c2ccc(-c3cc(O)nc(N)n3)cc2)c(C)c1C,-9%,1.8
O=C(NCC1CCCO1)c1ccc(N2C(=O)C3CC=CCC3C2=O)cc1 (stereo not drawn),9%,-1.19
Cc1ccc(-n2nc(C(=O)N3CCCCC3)c3ncn(C)c(=O)c32)cc1,-17%,1.53
Cc1ccc(S(=O)(=O)N2CCCC[C@H]2C2OCCO2)cc1F,-7%,0.67
CCCc1nn(-c2ccc(Cl)cc2)c(=O)n1CC(=O)NC(C)C,12%,-1.64
COC1(c2nc(-c3cc(C)ccn3)no2)CCCCC1,-7%,0.9
O=C(CCNC1CCN([C@H]2CCOC2)CC1)Nc1cc(Cl)cc(Cl)c1,25%,-2.84
CC(NC(=O)c1ccncc1)C(c1cccs1)N1CCN(C)CC1 (stereo not drawn),-15%,2.32
COc1ccc(CCC(=O)N2CC(n3ccnn3)C2)cc1,-15%,1.71
C[C@@H](C1CC1)N(CCC#N)Cc1ccc(NS(C)(=O)=O)cc1,-8%,0.77
O=C(c1ccc2c(c1)COC2)N1C[C@H](O)C2(CC2)C1,9%,-1.38
O=C(N[C@H]1CCc2ccccc21)c1nc2n(n1)-c1ccccc1S(=O)(=O)N2,6%,-0.84
CN(C(=O)CN(CC(=O)N(C)c1ccccc1)C1CCCC1)c1ccccc1,0%,-0.05
COc1ccc(C2CN(C(=O)c3ccccc3Cl)CC2C(=O)NCC2CC2)c(OC)c1 (stereo not drawn),3%,-0.33
CC(=O)N1CCN(c2ncccc2CNC(=O)[C@H]2CC23CCCCC3)CC1,-15%,2.06
CC[C@@]1(C(=O)NCCc2ccc(F)cc2)CCCN1,-5%,0.69
CC(=O)c1cc(Br)c2ocnc2c1,2%,-0.26
CCC(CC)C(=O)N[C@@H]1CCCC[C@@H]1n1cc(C(=O)O)nn1,-11%,2.07
CC(=Cc1ccc(N(C)C(C)C)nc1)c1nc(C)c(C#N)c(=O)[nH]1,-3%,0.58
CC(C)c1cc([C@@H]2CCCN2Cc2cccc(Br)c2)no1,-11%,1.96
CCCCc1ccnc(NC(=O)NCc2nccn2CCCc2ccccc2)n1,8%,-1.16
CCN(CC1CC1)C(=O)NCCC(C)(C)C,-7%,1.08
COC[C@H](C)n1ccc(NC(=O)NC(C)(C)c2nc3ccccc3s2)n1,5%,-0.83
CCCc1[nH]ncc1C(=O)N(C)CC(C)(C)C,-4%,0.44
